Results as given in US11618753B2 (priority 2018, dated 2023).

What follows are molecules tested on MLKL phosphorylation, HT29-L23 human colorectal adenocarcinoma cells (assay: cells). Details: read-out: pMLKL HCS Cell Assay (IC50, uM).

Row | SMILES | IC50 [µM]
1 | Nc1ncnn2c(-c3cnc(F)c(C(=O)NCC[C@@H](O)c4ccc(Cl)cc4)c3)cc(C(F)(F)F)c12 [Example 269, 5-[4-amino-5-(trifluoromethyl)pyrrolo[2,1-f][1,2,4]triazin-7-yl]-N-[(3R)-3-(4-chlorophenyl)-3-hydroxypropyl]-2-fluoropyridine-3-carboxamide] | 0.028
2 | Nc1ncnn2c(-c3cnc(F)c(C(=O)Nc4cnn(Cc5ccccc5)c4)c3)cc(C(F)(F)F)c12 [Example 270, 5-[4-amino-5-(trifluoromethyl)pyrrolo[2,1-f][1,2,4]triazin-7-yl]-N-(1-benzyl-1H-pyrazol-4-yl)-2-fluoropyridine-3-carboxamide] | 0.0011
3 | CC(CCNC(=O)c1cc(-c2cc(C(F)(F)F)c3c(N)ncnn23)cnc1F)c1ccccc1 (stereo not shown) [Example 271, 5-[4-amino-5-(trifluoromethyl)pyrrolo[2,1-f][1,2,4]triazin-7-yl]-2-fluoro-N-(3-phenylbutyl)pyridine-3-carboxamide] | 0.026
4 | Nc1ncnn2c(-c3cnc(F)c(C(=O)NCCC(O)c4ccc(F)cc4)c3)cc(C(F)(F)F)c12 (stereo not shown) [Example 272, 5-[4-amino-5-(trifluoromethyl)pyrrolo[2,1-f][1,2,4]triazin-7-yl]-2-fluoro-N-[3-(4-fluorophenyl)-3-hydroxypropyl] pyridine-3-carboxamide] | 0.0083
5 | Nc1ncnn2c(-c3cnc(F)c(C(=O)NCCC(O)(c4ccccc4)C(F)(F)F)c3)cc(C(F)(F)F)c12 (stereo not shown) [Example 273, 5-[4-amino-5-(trifluoromethyl)pyrrolo[2,1-f][1,2,4]triazin-7-yl]-2-fluoro-N-(4,4,4-trifluoro-3-hydroxy-3-phenylbutyl)pyridine-3-carboxamide] | 0.148
6 | Nc1ncnn2c(-c3cncc(C(=O)NCC[C@@H](O)c4ccc(Cl)cc4)c3)cc(C(F)(F)F)c12 [Example 274, 5-[4-amino-5-(trifluoromethyl)pyrrolo[2,1-f][1,2,4]triazin-7-yl]-N-[(3R)-3-(4-chlorophenyl)-3-hydroxypropyl]pyridine-3-carboxamide] | 0.026
7 | Nc1ncnn2c(-c3cncc(C(=O)NCC[C@H](O)c4ccc(Cl)cc4)c3)cc(C(F)(F)F)c12 [Example 277, 5-[4-amino-5-(trifluoromethyl)pyrrolo[2,1-f][1,2,4]triazin-7-yl]-N-[(3S)-3-(4-chlorophenyl)-3-hydroxypropyl]pyridine-3-carboxamide] | 0.025
8 | CC(C)(F)C(=O)N1C[C@H](F)[C@H](NC(=O)c2cncc(-c3cc(C(F)(F)F)c4c(N)ncnn34)c2)C1 [Example 278, 5-[4-amino-5-(trifluoromethyl)pyrrolo[2,1-f][1,2,4]triazin-7-yl]-N-[(3R,4S)-4-fluoro-1-(2-fluoro-2-methylpropanoyl)pyrrolidin-3-yl]pyridine-3-carboxamide] | 0.249
9 | C[C@@](O)(C(=O)N1C[C@H](F)[C@H](NC(=O)c2cncc(-c3cc(C(F)(F)F)c4c(N)ncnn34)c2)C1)C(F)(F)F [Example 279, 5-[4-amino-5-(trifluoromethyl)pyrrolo[2,1-f][1,2,4]triazin-7-yl]-N-[(3R,4S)-4-fluoro-1-[(2R)-3,3,3-trifluoro-2-hydroxy-2-methylpropanoyl]pyrrolidin-3-yl]pyridine-3-carboxamide] | 0.08
10 | Nc1ncnn2c(-c3cncc(C(=O)N[C@@H]4CN(C(=O)C5CCC(F)(F)CC5)C[C@@H]4F)c3)cc(C(F)(F)F)c12 [Example 280, 5-[4-amino-5-(trifluoromethyl)pyrrolo[2,1-f][1,2,4]triazin-7-yl]-N-[(3R,4S)-1-(4,4-difluorocyclohexanecarbonyl)-4-fluoropyrrolidin-3-yl]pyridine-3-carboxamide] | 0.351
11 | Nc1ncnn2c(-c3cncc(C(=O)N[C@@H]4CN(C(=O)C5CC(F)(F)C5)C[C@@H]4F)c3)cc(C(F)(F)F)c12 [Example 282, 5-[4-amino-5-(trifluoromethyl)pyrrolo[2,1-f][1,2,4]triazin-7-yl]-N-[(3R,4S)-1-(3,3-difluorocyclobutanecarbonyl)-4-fluoropyrrolidin-3-yl]pyridine-3-carboxamide] | 0.429
12 | Nc1ncnn2c(-c3cncc(C(=O)N4CCC[C@H](Cc5ccc(F)cc5)C4)c3)cc(C(F)(F)F)c12 [Example 285, 7-{5-[(3R)-3-[(4-fluorophenyl)methyl]piperidine-1-carbonyl]pyridin-3-yl]-5-(trifluoromethyl) pyrrolo[2,1-f][1,2,4]triazin-4-amine] | 0.022
13 | Nc1ncnn2c(-c3cncc(C(=O)N4CCOC(Cc5ccccc5)C4)c3)cc(C(F)(F)F)c12 (stereo not shown) [Example 287, 7-[5-(2-benzylmorpholine-4-carbonyl)pyridin-3-yl]-5-(trifluoromethyl)pyrrolo[2,1-f][1,2,4]triazin-4-amine] | 0.02
14 | COc1nc(C)c(-c2cc(C(F)(F)F)c3c(N)ncnn23)cc1C(=O)NCCC(O)(c1ccccc1)C(F)(F)F (stereo not shown) [Example 288, 5-[4-amino-5-(trifluoromethyl)pyrrolo[2,1-f][1,2,4]triazin-7-yl]-2-methoxy-6-methyl-N-(4,4,4-trifluoro-3-hydroxy-3-phenylbutyl)pyridine-3-carboxamide] | 0.276
15 | Cc1ncc(-c2cc(C(F)(F)F)c3c(N)ncnn23)cc1C(=O)N[C@@H]1CN(C(=O)C2CC(F)(F)C2)C[C@@H]1C [Example 292, 5-[4-amino-5-(trifluoromethyl)pyrrolo[2,1-f][1,2,4]triazin-7-yl]-N-[(3S,4S)-1-(3,3-difluorocyclobutanecarbonyl)-4-methylpyrrolidin-3-yl]-2-methylpyridine-3-carboxamide] | 0.133
16 | Cc1ncc(-c2cc(C(F)(F)F)c3c(N)ncnn23)cc1C(=O)N[C@@H]1CN(C(=O)C2CCC(F)(F)CC2)C[C@@H]1C [Example 293, 5-[4-amino-5-(trifluoromethyl)pyrrolo[2,1-f][1,2,4]triazin-7-yl]-N-[(3S,4S)-1-(4,4-difluorocyclohexanecarbonyl)-4-methylpyrrolidin-3-yl]-2-methylpyridine-3-carboxamide] | 0.053
17 | Cc1ncc(-c2cc(C(F)(F)F)c3c(N)ncnn23)cc1C(=O)N[C@@H]1CN(C(=O)C2CCC(F)(F)C2)C[C@@H]1C (stereo partly drawn) [Example 294, 5-[4-amino-5-(trifluoromethyl)pyrrolo[2,1-f][1,2,4]triazin-7-yl]-N-[(3S,4S)-1-(3,3-difluoro-cyclopentanecarbonyl)-4-methylpyrrolidin-3-yl]-2-methylpyridine-3-carboxamide] | 0.046
18 | COc1ncc(-c2cc(C(F)(F)F)c3c(N)ncnn23)cc1C(=O)N[C@@H]1CN(C(=O)c2ccccc2)C[C@@H]1C [Example 295, 5-[4-amino-5-(trifluoromethyl)pyrrolo[2,1-f][1,2,4]triazin-7-yl]-N-[(3S,4S)-1-benzoyl-4-methylpyrrolidin-3-yl]-2-methoxypyridine-3-carboxamide] | 0.065
19 | COc1ncc(-c2cc(C(F)(F)F)c3c(N)ncnn23)cc1C(=O)N[C@@H]1CN(C(=O)C2CCCCC2)C[C@@H]1C [Example 296, 5-[4-amino-5-(trifluoromethyl)pyrrolo[2,1-f][1,2,4]triazin-7-yl]-N-[(3S,4S)-1-cyclohexane-carbonyl-4-methylpyrrolidin-3-yl]-2-methoxypyridine-3-carboxamide] | 0.063
